# Source: PubChem BioAssay AID886 (National Center for Advancing Translational Sciences (NCATS), 2007)
# Where “and” joins values, the source holds several entries; their conditions need not be identical. Identical values can stand only once. Screen size: about 73,000 compounds; about 2,500 (3.4%) were called active. This list was built around the results that the source calls inconclusive (neither active nor inactive); the mix of calls is not that of the screen. Calls follow the shape of the dose curve; as a rule, active = well fitted inhibition curve with a large enough effect; inconclusive = small, poorly fitted or top-dose-only effect; inactive = no such curve, though single readings can be large or run the other way. Potencies of inconclusive entries are doubtful fits and often do not repeat.
# Target: 3-hydroxyacyl-CoA dehydrogenase type-2 (Homo sapiens) (UniProt Q99714)
# UniProt Q99714, sequence (Q99714 whole entry, looked up): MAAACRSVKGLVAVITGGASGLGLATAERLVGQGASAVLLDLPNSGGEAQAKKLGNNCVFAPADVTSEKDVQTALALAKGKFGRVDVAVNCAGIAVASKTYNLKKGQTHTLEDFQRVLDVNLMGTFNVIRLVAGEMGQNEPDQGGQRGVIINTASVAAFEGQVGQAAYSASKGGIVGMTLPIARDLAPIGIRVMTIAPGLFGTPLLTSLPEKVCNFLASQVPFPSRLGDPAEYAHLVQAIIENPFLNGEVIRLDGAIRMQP
# UniProt Q99714, sequence (Q99714 whole entry, looked up): as above
# Experiment: qHTS Assay for Inhibitors of HADH2 (Hydroxyacyl-Coenzyme A Dehydrogenase, Type II); also: nearly all actives have a fitted effect of over 60% in size
# Conditions: recombinant HADH2, NADH fluorescence, beta-hydroxybutyryl-CoA; activity change, negative = inhibition: at 57.1 µM (top of the series)
# Summary of the method: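 His-tagged recombinant enzyme from E. coli, 20 nM, preincubated 15 min RT with compound; reaction started with 1 mM NAD+ and 90 uM beta-hydroxybutyryl-CoA in 100 mM Tris-HCl pH 9.0. NADH fluorescence (ex 360/em 450) read over 4 min; last-minus-first difference.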
# % is scaled to controls: 0 for no effect and ±100 for the full control effect; potency is read from the fitted curve at half-maximal effect; tags tell the direction and shape of the fitted curve.
SMILES,"activity change, negative = inhibition",Potency
Cc1n[nH]c(C)c1S(=O)(=O)N(CC(=O)Nc1ccc2c(c1)OCCO2)c1ccc(C(C)C)cc1,inactive: -5.63%,
COc1cccc(-c2cc(C(F)(F)F)nc(-n3cncn3)n2)c1,,"inconclusive: 39.8 µM [inhibitor, single point]"
Cc1cccc(CNc2nc(-c3ccc4c(c3)OCO4)nc3ccccc23)c1,,"inconclusive: 39.8 µM [inhibitor, single point]"
COc1ccc(-c2nc3n(c(=O)c2C#N)CCCS3)cc1,,"inconclusive: 25.1 µM [inhibitor, partial curve]"
Nc1c(C(=O)NCc2ccco2)sc2nc3c(cc12)C(=O)CCC3,,"inconclusive: 31.6 µM [inhibitor, single point]"
Cc1onc(-c2ccccc2)c1C(=O)Nc1nnc(-c2ccncc2)s1,,active: 12.6 µM
CCn1c(=N)c(C(N)=O)cc2c(=O)n3cccc(C)c3nc21,,active: 25.1 µM
CCOC(=O)c1c(N)ssc1=S,,active: 1.26 µM
COc1cccc(NC(=O)NC2(C(F)(F)F)Oc3ccccc3O2)c1,,"inconclusive: 3.98 µM [inhibitor, full curve]"
COc1ccccc1OCc1ccc(C(=O)Nc2ccncc2)o1,inactive: -2.31%,
CCOC(=O)c1ccc(NC(=O)CN2CCN(CCN=CC3=C(O)CC(C)(C)CC3=O)CC2)cc1,,"inconclusive: 12.6 µM [inhibitor, partial curve]"
Clc1cccc(N2CCN(Cc3nc(-c4ccccc4)no3)CC2)c1,inactive: -2.6%,
O=C(CN1C(=O)CSC1=O)Nc1ccccc1N1CCOCC1,,"inconclusive: 3.98 µM [inhibitor, single point]"
O=C(c1ccco1)N1CCC2(CC1)CN(c1ccccn1)C2,inactive: -0.844%,
CCOC(=O)C1CCCN(CC(=O)Nc2c(C(=O)OC)[nH]c3ccc(Cl)cc23)C1 (configuration not stated),,"inconclusive: 31.6 µM [inhibitor, single point]"
Cc1cc(C)nc(SCC(=O)NC2=NC(=O)C(C)S2)n1 (configuration not stated),,"inconclusive: 39.8 µM [inhibitor, single point]"
CCOC(=O)c1ccc(CC(=O)c2oc3cc(O)ccc3c2C)o1,,"inconclusive: 39.8 µM [inhibitor, single point]"
CN1C(=O)C(Cc2c[nH]c3ccccc23)NC1=S (configuration not stated),,"inconclusive: 25.1 µM [inhibitor, partial curve]"
Cc1ccc(C(=O)O[C@@H](C(=O)O)[C@@H](OC(=O)c2ccc(C)cc2)C(=O)O)cc1 (tested in a mixture with another compound),inactive: -7.24%,
COc1ccc(NC(=O)Nc2ccc3nccnc3c2)cc1,inactive: 5.75% [at 11.4 µM],
COc1ccccc1NC(=O)c1ccccc1SC,,"inconclusive: 3.98 µM [inhibitor, single point]"
c1ccc(Nc2cc(Nc3ccccc3)[nH]n2)cc1,,"inconclusive: 39.8 µM [inhibitor, single point]"
Nc1nc(N)c(N=Nc2ccc(C(=O)O)c(O)c2)c(N)n1,,"inconclusive: 3.98 µM [inhibitor, single point]"
COc1ccc(CNC(=O)c2cnn3c(C(F)F)cc(C)nc23)cc1OC,inactive: 10.6%,

SMILES,"activity change, negative = inhibition",Potency
COc1ccc(-c2nc3cnc(N4CCOCC4)nc3n(C3CC3)c2=O)cc1,inactive: 16.8%,
N[C@H](CCC(=O)N[C@H](CSN=O)C(=O)NCC(=O)O)C(=O)O,,"inconclusive: 3.16 µM [inhibitor, full curve] and inconclusive: 1.26 µM [inhibitor, full curve]"
CNCC[C@H](Oc1ccccc1C)c1ccccc1,inactive: -2.91%,
COC(=O)c1ccccc1NC(=O)C1CCN(C(=O)c2cc(OC)c(OC)c(OC)c2)CC1,,"inconclusive: 31.6 µM [inhibitor, single point]"
O=C1NC(=S)S/C1=C1\Sc2ccccc2N1CCCS(=O)(=O)O,,active: 2.51 µM
COc1cc(C2c3c(n[nH]c3C)C(=O)N2c2ccc(C)cc2)ccc1O (configuration not stated),,"inconclusive: 31.6 µM [inhibitor, single point]"
Cc1noc(C)c1CSc1nc2[nH]ncc2c(=O)n1-c1ccccc1,inactive: 0.304%,
CN1CCN(c2ncncc2-c2ccc(N(C)C)cc2)CC1,,"inconclusive: 31.6 µM [inhibitor, single point]"
CCCCn1c(NC(C)CC)nc2c1c(=O)[nH]c(=O)n2C (configuration not stated),,"inconclusive: 6.31 µM [inhibitor, single point]"
O=C(CCN1CCN(c2ccccc2)CC1)Nc1ccc2c(c1)OCO2,inactive: 3.12%,
COc1ccc(CCNc2oc(-c3ccco3)nc2C#N)cc1,,"inconclusive: 31.6 µM [inhibitor, single point]"
CC(C)C(NS(=O)(=O)c1cccc2nsnc12)C(=O)N1CCc2ccccc2C1 (configuration not stated),inactive: 4.91%,
CCCc1nc2oc3c(NCC4CCCO4)ncnc3c2c2c1COC(C)(C)C2 (configuration not stated),,"inconclusive: 31.6 µM [inhibitor, single point]"
CC(=O)c1ccc(NC(=O)C2CCN(S(=O)(=O)c3cccc4cccnc34)CC2)cc1,,"inconclusive: 7.94 µM [inhibitor, single point]"
CCN1CC=C2C(C1)C(c1ccc(Cl)s1)C(C#N)=C(N)C2(C#N)C#N (configuration not stated),,active: 20 µM
COc1ccc(OC)c(C2=NOC(C(=O)Nc3cccnc3)C2)c1 (configuration not stated),inactive: 2.12%,
O=C(Cc1ccc(Cl)cc1)Nc1ccc2oc(-c3ccncc3)nc2c1,,"inconclusive: 31.6 µM [inhibitor, single point]"
O=c1[nH]c2cc3c(cc2cc1C(c1nnnn1Cc1ccccc1)N1CCN2CCCC2C1)OCCO3 (configuration not stated),,"inconclusive: 39.8 µM [inhibitor, single point]"
CNc1nc(-c2ccccc2C)nc2ccccc12,,"inconclusive: 31.6 µM [inhibitor, single point]"
Cc1ccc2[nH]c(=O)c(CN(CCN3CCOCC3)C(=O)Nc3ccc(F)cc3)cc2c1,inactive: 8.8%,
CC1(C)Cc2c(C#N)c(NCCCO)nc(-c3ccccc3)c2CO1,,"inconclusive: 31.6 µM [inhibitor, single point]"
CN1CCc2c(sc3c2C(=O)NC(c2ccccn2)N3)C1 (configuration not stated),,active: 20 µM
O=C(Cc1ccccc1)N1CCC(c2nc(-c3ccc(F)cc3)no2)CC1,inactive: 6.71%,
CCOC(=O)c1cnc2c(cnn2CC)c1NN=C(C)C,,"inconclusive: 3.98 µM [inhibitor, full curve] and inconclusive: 39.8 µM [inhibitor, single point]"

SMILES,"activity change, negative = inhibition",Potency
COc1cc(-c2c(C#N)c(N)nc3c2c(C)nn3-c2ccc(C)c(C)c2)cc(OC)c1OC,,"inconclusive: 31.6 µM [inhibitor, single point]"
CC(=O)Nc1nonc1-c1nc2ccccc2n1N(C(C)=O)C(C)=O,,"inconclusive: 31.6 µM [inhibitor, single point]"
COCCn1c(=O)c(-c2ccccc2)nc2cnc(N(C)C)nc21,,"inconclusive: 25.1 µM [inhibitor, single point]"
COC(=O)[C@@]1(Cc2ccc(F)cc2)[C@H]2c3cc(C(=O)N4CCCC4)n(CCc4c[nH]c5cc(F)ccc45)c3C[C@H]2CN1C(=O)c1ccccc1,inactive: -1.43%,
CCN(CCO)Cc1cc(=O)oc2c(C)c(C)ccc12,inactive: -16.1%,
COC(=O)c1c(NC(=O)c2nc3ncccn3n2)sc(C(=O)N(C)C)c1C,,"inconclusive: 39.8 µM [inhibitor, single point]"
CCOC(=O)c1sc(NC(=O)c2ccco2)nc1-c1ccccc1,inactive: -3.48%,
COCCNC(=O)COc1ccc(OCCNC[C@@H](O)COc2ccccc2)cc1,inactive: -14.2%,
CC1=C(C#N)C(c2ccoc2)C(C(=O)OCc2ccccc2)=C(N)S1 (configuration not stated),,"inconclusive: 31.6 µM [inhibitor, single point]"
COc1ccc2c(c1)c1ccccc1n2C,,"inconclusive: 39.8 µM [inhibitor, single point]"
CCc1cc(=O)oc2c(C)c(O)c(CN3CCCCC3)cc12,,active: 31.6 µM
CC(C)CO/N=C1/C[C@@H](O)[C@@H](O)[C@@H]2[C@@H]3C(=O)N(Cc4ccc5c(c4)OCO5)C(=O)[C@H]3CC[C@H]12,inactive: 10.5% [at 11.4 µM],
COc1ccccc1CC(=O)Nc1ccc(O)cc1C(=O)O,,"inconclusive: 20 µM [inhibitor, partial curve]"
CCOC(=O)C1CSC(Cc2ccc(OCc3ccc([N+](=O)[O-])cc3)cc2)N1 (configuration not stated),,"inconclusive: 39.8 µM [inhibitor, single point]"
O=C1CC(c2ccccc2)Sc2ccccc2N1 (configuration not stated),,"inconclusive: 39.8 µM [inhibitor, single point]"
CCCN1C(=O)c2ccccc2NC1c1ccc(OC)cc1O (configuration not stated),inactive: 41%,
Cc1nc2cc(Cl)ccc2n1CCO,inactive: 0.733%,
CCc1ccccc1OCC(=O)Nc1ccc(S(N)(=O)=O)cc1,inactive: -3.07%,
COc1ccc(S(=O)(=O)N2CCC(O)(c3ccc(Cl)cc3)CC2)cc1,,"inconclusive: 0.0251 µM [inhibitor, partial curve, poor fit]"
COCCn1c(=O)c(-c2ccccc2)nc2cnc(OC)nc21,,"inconclusive: 25.1 µM [inhibitor, single point]"
O=C1CC2(CCCCC2)Oc2ccc(OCC(=O)N3CCOCC3)cc21,,"inconclusive: 39.8 µM [inhibitor, single point]"
CN(c1ccc(C(=O)N2CCCCC2)cc1)S(C)(=O)=O,inactive: 3.42%,
COC(=O)c1c(NC(=O)CSc2nncs2)sc2c1CCCCC2,,"inconclusive: 25.1 µM [inhibitor, single point]"
CN1CCN(CCCNC(=O)C2CC(=O)N(C3CCCCC3)C2)CC1 (configuration not stated),,"inconclusive: 39.8 µM [inhibitor, single point]"
